Measurements reported in patent US20260274910A1, “SINGLE FUSION PROTEIN AND PHARMACEUTICAL COMPOSITION” (MEDI&GENE INC., priority 2023, published 2026).

Columns and labels:
[1] = tested on: SH-SY5Y dopaminergic neuron cell line; test: MTT cell viability of neuron cells under rotenone; assay type: cell-based; settings: 1 µM rotenone + 100 nM test substance, 24 hours; compared with rotenone alone
Description: (§1) The SH-SY5Y dopaminergic neuron cell line was treated with 1 µM of a toxic substance, rotenone and 100 nM of each test substance simultaneously. After 24 hours, the MTT cell viability or the effect of reducing reactive oxygen was observed.

[2] = tested on: MDA-MB-231 triple-negative breast cancer cell line; test: MTT cell viability in breast cancer cells; assay type: cell-based; settings: 1 μM, 48 hours; compared with Control (PBS), SEQ ID NO: 4 and SEQ ID NO: 5
Description: Next, the test substances, the fusion proteins (SEQ ID NO: 1, 2, 3, 7, 14, 15) and shortened sequences (SEQ ID NOs: 9, 10, 11, 12) were treated to MDA-MB-231 triple-negative breast cancer cell line at a concentration of 1 μM (Control: PBS) for 48 hours. Thereafter, the cells were washed with PBS once, and the cells were suspended in serum-free buffer. The MTT (3-[4,5-dimethylthiazol-2-yl]-2,5-diphenyltetrazolium bromide) substance was added thereto at 0.5 mg/ml and incubated at 37° C. for 2 hours. Then, they were washed with PBS once, and the cells were lysed with DMSO for 15 minutes. The solution was transferred to a new plate and the absorbance was measured at 590 nm using a microplate reader.

MDA-MB-231 cell line = test: Reactive oxygen generation (DCF-FA) in breast cancer cells; assay type: cell-based; settings: 1 μM, 24 hours; compared with Control and SEQ ID NO: 5
Description: In addition, in order to examine generation of reactive oxygen that plays an important role in cancer cell death, each test substance was treated to the MDA-MB-231 cell line at a concentration of 1 μM (Control: PBS) for 24 hours. Then, the cells were stained with DCF-FA and their fluorescence values were observed and compared at 485/535 nm.

cAMP (cyclic AMP) = test: cAMP level (hTRF) in undifferentiated 3T3-L1 cells; assay type: cell-based, mouse; settings: undifferentiated 3T3-L1, 100 nM with 0.5 mM IBMX, 30 minutes; compared with Control and SEQ ID NO: 5
Description: To observe the functionality of the fusion proteins related to lipid metabolism, the 3T3-L1 mouse pre-adipocyte cell line was used as the cell line itself (undifferentiated) or by differentiating into adipocytes. Differentiation into the adipocytes was performed by inducing primary differentiation for the 3T3-L1 cells in a medium containing DMEM, 10% FBS, 10 μg/ml insulin, 0.5 mM IBMX (3-Isobutyl-1-methylxanthine), and 1 μM dexamethasone for 2 days, and inducing secondary differentiation with a medium containing DMEM, 10% FBS, and 10 μg/ml insulin for the remaining 4 days. The adipocytes in which differentiation was finally completed were treated with the test substances at a concentration of 100 nM for 30 hours (Control: PBS) and then used for each test.
Next, changes in cAMP (cyclic AMP), a signaling mediator contributing to lipolysis and energy metabolism were evaluated in the undifferentiated adipocytes. The undifferentiated cells were treated with the test substances at a concentration of 100 nM (Control: PBS) with 0.5 mM IBMX for 30 minutes. Thereafter, the level of cAMP was evaluated by the hTRF (Homogeneous Time Resolved Fluorescence) method (using CAMP Gs dynamic kit from Cisbio). As a result of the measurement, it was confirmed that the level of cAMP was higher in the groups treated with the fusion proteins (SEQ ID NOs: 1, 2, 3, 7, 13, 14, 15) and shortened sequences (sequences 9, 10, 11) compared with the Control and His tag-wild-type substance (1-81) (SEQ ID NO: 5) (FIG. 7).

[3] = tested on: SH-SY5Y dopaminergic neuron cell line; test: Reactive oxygen in neuron cells under rotenone; assay type: cell-based; settings: 1 µM rotenone + 100 nM test substance, 24 hours; compared with rotenone alone
Description: as §1

[4] = tested on: diet-induced obesity-induced mouse model; test: Diet-induced obesity-induced model study I; assay type: in vivo, C57BL/6N mice; settings: versus Control
Description: (§2) In order to confirm the efficacy of the fusion protein against diseases according to obesity and further, sarcopenic obesity, disease induction was carried out in mice through diet-induced obesity. As an animal model, C57BL/6N was used, and was used after an acclimation period by providing normal diet for 1 week, and the housing conditions were maintained at 18~24° C., and 50~60% humidity, and ad libitum feeding with free access to feed and water was carried out during both the acclimation period and experimental period. In the mice after the acclimation period for 1 week, obesity was induced by a high-fat diet (Research Diets, Inc. D12492) to induce disease.
The mice in which obesity induction was completed were divided into a Control and an experimental group (Control: n=8, No. 1: n=6, No. 2: n=6), and PBS to the control group, and the fusion protein (SEQ ID NO: 1, 2) to the experimental group were subcutaneously injected at a dose 5 mg/kg 6 times a week for 10 weeks and the efficacy thereof was observed.

[5] = Half-life in mice by ELISA; assay type: in vivo; settings: C57BL6/J mice, subcutaneous 5 mg/kg
Description: The half-life of the fusion protein was further measured by ELISA (Enzyme-Linked Immunosorbent Assay). Each test substance was subcutaneously injected to the C57BL6/J mice at a concentration of 5 mg/kg, and then blood was separated by time.
The separated blood was added to a 96-well plate coated with a capture antibody, and each well was washed with PBS (phosphate buffered saline) 3 times. A detection solution was added to each well and the wavelengths value thereof were read at 450 nm and analyzed.

[6] = tested on: Akt and S6 (phosphorylation, p-Akt/p-S6) in C2C12 mouse skeletal muscle cell line; test: Akt and S6 phosphorylation (western blot) in C2C12 muscle cells; assay type: cell-based; settings: 2 hours; for Activity (% increase compared to control) Differentiated Akt / Activity (% increase compared to control) Differentiated S6: C2C12 differentiated into myotubes; for Activity (% increase compared to control) Differentiated Akt / Activity (% increase compared to control) Differentiated S6 / Activity of Akt and S6 compared with control and His tag-wild-type substance (SEQ ID NO: 5): 100 nM; for Activity (% increase compared to control) Differentiated Akt / Activity (% increase compared to control) Differentiated S6 / Activity (% increase compared to control) Undifferentiated Akt / Activity (% increase compared to control) Undifferentiated S6: control PBS; for Activity of Akt and S6 compared with control and His tag-wild-type substance (SEQ ID NO: 5): differentiated cell line; for Activity (% increase compared to control) Undifferentiated Akt / Activity (% increase compared to control) Undifferentiated S6: undifferentiated C2C12, 100 nM
Description: In order to evaluate functions related to muscle loss diseases, each test substance was treated to the undifferentiated C2C12 mouse skeletal muscle cell line (mouse myoblast cell line) or the cell line in which differentiation into myotubes was completed. Differentiation of the cell line into myotubes was performed by conducting addition of 2% horse serum to culture medium and replacement with new medium every two days for a total of 4 days.
To the undifferentiated or differentiated cell lines, the test substances, fusion proteins (SEQ ID NOs: 1, 2, 3, 7, 14 and 15) were treated at a concentration of 100 nM (Control: PBS treated group) for 2 hours. Thereafter, the cells were immediately washed once and the cells were lysed with RIPA buffer (Radioimmunoprecipitation assay buffer). The activity of Akt and S6 (phosphorylation, p-Akt/p-S6) was observed by western blot. Akt phosphorylation is a well-known marker of activation of cell signaling pathways, and is an indicator of beneficial effects on muscle cells such as promotion of glucose metabolism and promotion of muscle biosynthesis. Similarly, S6 phosphorylation is a well-known marker of mTOR activity, and the activity of mTOR is an indicator showing muscle biosynthesis and various cell signaling pathways.

[7] = tested on: diet-induced obesity-induced mouse model; test: Diet-induced obesity-induced model study III; assay type: in vivo, C57BL/6N mice; settings: 5 mg/kg subcutaneous 6 times a week for 2 weeks; versus Control
Description: as §2
The mice in which obesity was induced were divided into a Control and an experimental group (Control: n=8, No. 3: n=7), and PBS to the Control and the fusion protein (SEQ ID NO: 3) to the experimental group were subcutaneously injected at a dose of 5 mg/kg 6 times a week for 2 weeks, and the efficacy thereof was observed.

[8] = tested on: diet-induced obesity-induced mouse model; test: Diet-induced obesity-induced model study IV; assay type: in vivo, C57BL/6N mice; settings: 5 mg/kg subcutaneous 6 times a week for 10 days; before versus after administration
Description: as §2
The mice in which obesity introduction was completed (No. 7: n=7) were subcutaneously injected with the fusion protein (SEQ ID NO: 7) at a dose of 5 mg/kg 6 times a week for 10 days, and the efficacy thereof was compared and observed before and after administration.

[9] = 5 mg/kg subcutaneous 6 times a week for 10 weeks
[10] = after 3 weeks of administration

Molecule	Cell viability (MTT) [1]	Cell viability (MTT) [2]	Reactive oxygen generation (MDA-MB-231 cell line)	Level of cAMP (cAMP (cyclic AMP))	Generation of reactive oxygen [3]	Half-life [5]	Activity (% increase compared to control) Differentiated Akt [6]	Activity (% increase compared to control) Differentiated S6 [6]	Activity of Akt and S6 compared with control and His tag-wild-type substance (SEQ ID NO: 5) [6]	Activity (% increase compared to control) Undifferentiated Akt [6]	Activity (% increase compared to control) Undifferentiated S6 [6]	further results
SEQ ID NO: 1: Recombinant protein: Shortened substance (1-60)-shortened linker-Fc fusion (mutant modified) (protein) GSDQSENVDRGAGSIREAGGAFGKREQAEEERYFRAQSREQLAALKKHHEEEIVHHKKEIGGGGS[human IgG1 Fc with changes omitted here]	significantly increased	significantly low	generated higher	higher	significantly inhibited	39.6 h	231%	486%	significantly higher activity	314%	294%	Blood sugar [4, 9]: reduced; Final body weight [4, 9]: reduced at a significant level; Size of lipid droplets in liver tissue [4, 9]: significantly reduced; Fat tissue mass (DXA assay) [4, 10]: significant decrease; Muscle mass (DXA assay) [4, 10]: maintained
SEQ ID NO: 3: Recombinant protein: Shortened amino acid modified substance (1-60; G20S, F34M mutation introduced)-repeat-type linker-Fc fusion (mutant modified) (protein) GSDQSENVDRGAGSIREAGSAFGKREQAEEERYMRAQSREQLAALKKHHEEEIVHHKKEIGGGGSGGGGSGGGGS[human IgG1 Fc with changes omitted here]	significantly increased	significantly low	generated higher	higher	significantly inhibited	74.7 h	463%	587%	significantly higher activity	421%	302%	Fat tissue ratio [7]: decrease; Final body weight [7]: reduced at a significant level; Muscle tissue ratio [7]: increase
SEQ ID NO: 7: Recombinant protein: Shortened substance (1-60)-linker-GLP1 sequence-GLP1-linker-Fc fusion (protein) GSDQSENVDRGAGSIREAGGAFGKREQAEEERYFRAQSREQLAALKKHHEEEIVHHKKEIGGGGSGGGGSGGGGSHGEGTFTSDVSSYLEEQAAKEFIAWLVKGGGGGGGSGGGGSGGGGSA[human IgG4 Fc with S228P (EU numbers) omitted here]	significantly increased	significantly low	generated higher	higher	significantly inhibited		411%	446%	significantly higher activity	377%	513%	Body weight [8]: reduced at a significant level; Fat tissue ratio [8]: decrease; Muscle tissue ratio [8]: increase
